Source: PubChem BioAssay AID1460 (National Center for Advancing Translational Sciences (NCATS), 2008)
Values joined by “and” are separate entries in the source; they are usually repeats but may differ in a detail not shown here. Equal values may be shown once. The whole screen tested about 270,000 compounds, of which about 5,800 (2.1%) were called active. Inconclusive means that the source gave no clear call. Such entries were picked first, then a sample of the others. The call rests on the fitted dose curve; in most records, active means well fitted inhibition curve with a large enough effect; inconclusive means small, poorly fitted or top-dose-only effect; inactive means flat fitted curve, though single readings scatter. Potencies of inconclusive entries are doubtful fits and often do not repeat.

molecular target: Microtubule-associated protein tau (Homo sapiens) (UniProt P10636); test: qHTS for Inhibitors of Tau Fibril Formation, Thioflavin T Binding; conditions: recombinant tau K18 P301L (four-repeat tau fragment), heparin-induced fibrillization, ThT fluorescence; series mostly up to 57.4 µM; further: nearly all actives have a fitted effect of over 55% in size
UniProt P10636, sequence (P10636 whole entry, looked up, the tested form may be a part): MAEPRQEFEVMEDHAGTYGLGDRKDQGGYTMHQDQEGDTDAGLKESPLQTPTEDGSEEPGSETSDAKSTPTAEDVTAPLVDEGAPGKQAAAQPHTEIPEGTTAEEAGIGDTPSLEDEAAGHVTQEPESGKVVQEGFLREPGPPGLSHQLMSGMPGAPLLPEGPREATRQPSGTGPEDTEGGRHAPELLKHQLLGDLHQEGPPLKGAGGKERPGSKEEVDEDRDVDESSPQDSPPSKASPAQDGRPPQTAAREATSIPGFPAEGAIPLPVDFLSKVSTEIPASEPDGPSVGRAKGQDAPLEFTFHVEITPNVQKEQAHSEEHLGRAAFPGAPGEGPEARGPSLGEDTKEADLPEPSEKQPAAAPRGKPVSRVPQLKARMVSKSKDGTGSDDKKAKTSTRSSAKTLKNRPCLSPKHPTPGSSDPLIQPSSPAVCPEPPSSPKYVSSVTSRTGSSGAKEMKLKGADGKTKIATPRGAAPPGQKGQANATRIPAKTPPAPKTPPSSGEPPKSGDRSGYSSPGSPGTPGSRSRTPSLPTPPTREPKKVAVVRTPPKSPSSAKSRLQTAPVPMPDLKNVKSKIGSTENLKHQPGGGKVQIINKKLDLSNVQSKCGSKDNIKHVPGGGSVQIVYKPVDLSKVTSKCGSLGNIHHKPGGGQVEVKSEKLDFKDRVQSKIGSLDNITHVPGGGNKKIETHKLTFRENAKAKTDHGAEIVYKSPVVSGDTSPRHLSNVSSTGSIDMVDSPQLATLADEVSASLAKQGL
Outline: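 Recombinant human tau K18 fragment […] carrying P301L, 15 uM unlabeled plus 0.24 uM Alexa 594-labeled, was fibrillized with 20 uM heparin in 100 mM sodium acetate pH 7 for 6 hr at 37 C; 30 uM ThT fluorescence read after 1 hr.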
Potency means the concentration at half of the fitted maximal effect; tags describe the fitted curve by direction and shape.

SMILES	Potency
N#Cc1c(NC(=O)CSc2nc(-c3ccco3)cc(C(F)(F)F)n2)sc2c1CCCC2	inactive
CC(=O)NC(=S)Nc1ccc2oc(-c3cc(F)c(F)cc3Cl)nc2c1	inactive
C=CCNC(=O)c1ccc2c3n(nc2c1)-c1ccc(C)cc1CO3	inconclusive: 1.26 µM [inhibitor, full curve]
Cc1ccc(N2C(=O)C3C(c4ccccc4)(C2=O)C3(c2ccccc2)c2ccccc2)cc1 (stereo unspecified)	inactive
CC(C)(C)OC(=O)N1CCC(c2c(C(=O)N3CCN(c4ccc(Cl)cc4)CC3)cnn2-c2ccc(F)cc2F)CC1	inconclusive: 25.1 µM [inhibitor, partial curve]
CCOc1ccc(NC(=NCc2ccc3c(c2)OCO3)SC2CC(=O)N(c3ccccc3)C2=O)cc1 (stereo unspecified)	inactive
C[C@H]1C=C(C(=O)N2CCOCC2)O[C@@H](OCc2ccc(CO)cc2)C1	inconclusive: 5.62 µM [inhibitor, single point]
COc1cccc([C@@H]2Oc3ccc(OC)cc3C(=O)[C@H]2OC(=O)NCCc2ccc(OC)c(OC)c2)c1	inconclusive: 10 µM [inhibitor, partial curve]
O=C(/C=C/c1ccc2c(c1)OCO2)Nc1nc(-c2ccccc2)cs1	inconclusive: 1.26 µM [inhibitor, full curve]
COc1cccc(NC(=O)C2CCCN(c3nnc(-n4c(C)ccc4C)s3)C2)c1 (stereo unspecified)	inconclusive: 25.1 µM [inhibitor, partial curve, poor fit]
CCC(C)OC(=O)c1[nH]c2c(c1C)C(=O)CC(c1ccc(N(C)C)cc1)C2 (stereo unspecified)	inconclusive: 17.8 µM [inhibitor, partial curve]
CN(C)/C=C1/Sc2ccccc2C1=O	inconclusive: 20 µM [inhibitor, partial curve]
COC(=O)c1ccc(NC(=O)CSc2cn(CC(=O)N3CCCCCC3)c3ccccc23)cc1	inactive
CCCc1ccc(C(=O)NNc2ccccc2F)cc1	inactive
COc1ccc(NC(=O)/C(C#N)=C/c2ccc(Sc3nncn3C)c([N+](=O)[O-])c2)cc1	inconclusive: 25.1 µM [inhibitor, partial curve]
CCCOc1nc2c(c(=O)n(C)c(=O)n2C)n1Cc1cccc2ccccc12	inconclusive: 17.8 µM [inhibitor, single point]
COc1ccc(-c2[nH]ncc2N=Nc2ccccc2)cc1	active: 15.8 µM
CC(=O)N/N=C/C1=CCC2CC1C2(C)C (stereo unspecified)	inactive
CCc1ccc(CNc2ccc(N3CCN(C(C)=O)CC3)cc2)cc1	inconclusive: 12.6 µM [inhibitor, partial curve]
COC(=O)CCCC1=CC2=CC(=O)C(C)(OC(=O)c3cccs3)C(=O)C2=CN1CCCCO (stereo unspecified)	inconclusive: 39.8 µM [inhibitor, single point]
COC(=O)c1nc(NC(=O)c2ccccc2Br)n[nH]1	inconclusive: 31.6 µM [inhibitor, partial curve]
COCCCNC(=O)c1cnn(-c2ccccc2Cl)c1C1CCN(C(=O)OC(C)(C)C)CC1	inactive

SMILES	Potency
Cc1[nH]c2ccccc2c1CCNC(=O)CCC(=O)c1ccccc1	inconclusive: 11.2 µM [inhibitor, partial curve, poor fit]
N#CC1=C(N)OC2=C(CCc3ccccc32)C1c1ccccc1Cl (stereo unspecified)	inconclusive: 22.4 µM [inhibitor, single point]
COC(=O)c1ccc2c(c1O)C(=O)c1ccccc1C2=O	active: 5.62 µM
CCOC(=O)C(Cc1ccc(NC(=O)/C(=C/c2ccc(OC(C)=O)cc2)NC(C)=O)cc1)N1C(=O)c2ccccc2C1=O (stereo unspecified)	inconclusive: 39.8 µM [inhibitor, single point]
N#Cc1nc(-c2ccco2)oc1N1CCN(c2ccccc2)CC1	inconclusive: 17.8 µM [inhibitor, partial curve]
Cc1nc(NC2CCCCC2)c2nc(-c3ccccc3)n(CCN3CCCCC3)c2n1	inconclusive: 22.4 µM [inhibitor, single point]
COc1ccc2c(=O)cc(-c3ccc(O)cc3)oc2c1	inconclusive: 11.2 µM [inhibitor, partial curve]
COc1ccc(/C=C2\N=C(c3ccccc3)N(c3ccc(C(=O)O)cc3)C2=O)cc1OC	inconclusive: 35.5 µM [inhibitor, partial curve]
COc1ccc(NC(=O)C(=O)NCCc2ccc(OC)c(OC)c2)c(OC)c1	inconclusive: 25.1 µM [inhibitor, partial curve, poor fit]
CSc1ccc(CCNC(=O)CCCn2nc(C)c3sc4ccccc4c3c2=O)cc1	inconclusive: 17.8 µM [activator, single point]
Cc1cccc(NC(=O)CN2C(=O)c3cccnc3Oc3ccc(Cl)cc32)c1C	inconclusive: 31.6 µM [inhibitor, single point]
CC(c1ccccc1)N1C(=O)/C(=C/c2ccncc2)SC1=S (stereo unspecified)	inconclusive: 17.8 µM [inhibitor, partial curve]
CC(=O)c1ccc(NC(=O)CC2Nc3cccc4cccc(c34)NC2=O)cc1 (stereo unspecified)	active: 12.6 µM and active: 14.1 µM
Cc1nc(Nc2nc(CSc3nc4ccccc4[nH]3)cc(=O)[nH]2)nc2ccccc12	inconclusive: 10 µM [inhibitor, partial curve]
Cc1ccc(N2C(=O)[C@@H]3[C@H](C2=O)[C@H]2C=C(C(=O)c4ccccc4)C=CN2[C@@H]3C(=O)c2ccc(Cl)cc2)cc1	inconclusive: 25.1 µM [inhibitor, partial curve]
CCOc1cc(/C=N/n2cnnc2)ccc1OC(=O)c1cccc([N+](=O)[O-])c1	inconclusive: 17.8 µM [inhibitor, partial curve]
O=C(Nc1ccc(N2CCC(c3ccccc3)C2)c(C(=O)O)c1)c1ccc(Cl)cc1 (stereo unspecified)	inconclusive: 15.8 µM [inhibitor, partial curve]
C/C(=N\NC(=O)c1ccc(F)cc1)c1cccc(NC(=O)c2ccco2)c1	inconclusive: 12.6 µM [inhibitor, partial curve]
O=C1CC(Nc2ccc3ccccc3c2)C(=O)N1Cc1ccccc1 (stereo unspecified)	inconclusive: 22.4 µM [inhibitor, partial curve]
O=C(COc1cccnc1[N+](=O)[O-])c1c[nH]c2ccccc12	inconclusive: 28.2 µM [inhibitor, partial curve]
COc1ccc(OC)c(/C=N/NC(=O)c2cc3c(OC)cc(OC)cc3[nH]2)c1	active: 5.01 µM
Cc1ccc(-c2nnc(SCC(C)C)n2C)cc1	inconclusive: 28.2 µM [inhibitor, partial curve, poor fit]

SMILES	Potency
CCOC(=O)c1ccccc1NC(=O)Nc1cc2c(cc1N1CCCCC1)n(C)c(=O)n2C	inactive
Nc1ccc2c(c1)OCCOCCOCCOCCOCCO2	inconclusive: 20 µM [inhibitor, partial curve]
CCC(=O)Oc1ccc(C/C(=N\O)c2ccc(O)cc2O)o1	inconclusive: 39.8 µM [inhibitor, partial curve]
CC1=CC2(O)OCCN(CCO)C2=CC1=O (stereo unspecified)	active: 28.2 µM
Cc1nn(-c2nc(-c3ccc(F)cc3)cc(C(F)(F)F)n2)c(C)c1Br	inconclusive: 8.91 µM [inhibitor, partial curve]
Cc1nc(SCC(=O)Nc2ccccn2)n[nH]1	inactive
COc1ccc(NC(=O)Cn2c(C)cc3ccccc3c2=O)c(OC)c1	inconclusive: 25.1 µM [inhibitor, single point]
c1ccc(N2CCN(c3cnc4ccccc4n3)CC2)cc1	inconclusive: 25.1 µM [inhibitor, partial curve]
Cc1cc(C)n(-c2ccc(C(=O)NC(C)C)cc2)n1	inactive
O=C1NN(c2ccccc2)C(=O)/C1=C\c1ccccc1OCC(=O)N1CCOCC1	inconclusive: 25.1 µM [inhibitor, partial curve, poor fit]
CC1SC(c2ccccc2Cl)NC1=O (stereo unspecified)	inactive
Cc1ccc(-c2cc(C(=O)N3CCN(S(=O)(=O)c4ccc(Br)cc4)CC3)[nH]n2)cc1C	inconclusive: 31.6 µM [activator, single point]
COc1cc(/C=C2/SC(=O)NC2=O)ccc1Oc1ccc([N+](=O)[O-])cc1[N+](=O)[O-]	active: 15.8 µM
CCCn1c(/C=C/c2ccco2)nc2ccccc21	inactive
COc1ccc(C(=O)NCCn2cc(SCC(=O)NCCc3ccc(OC)c(OC)c3)c3ccccc32)cc1	inconclusive: 1.58 µM [inhibitor, full curve]
O=[N+]([O-])c1nn(-c2ccc3c(c2)OCCO3)n(O)c1=NC1CCN(Cc2ccccc2)CC1	inconclusive: 5.62 µM [inhibitor, full curve]
Cc1ccc(NC(=O)C2(c3cccs3)CCOCC2)cc1C	inactive
O=C(NNc1nc(-c2ccccc2)cs1)c1ccc(F)cc1	inconclusive: 11.2 µM [inhibitor, partial curve]
Cc1ccc(NC(=O)Cn2c(=O)c3cc(Cl)ccc3n3nncc23)cc1	inactive
COC(=O)CS(=O)(=O)c1nc2ccccc2nc1N1CCCCC1	inconclusive: 20 µM [inhibitor, partial curve, poor fit]
CC(C)CCNC(=O)Nc1ccc2c(c1)N(C)C(=O)c1ccccc1S2	inconclusive: 17.8 µM [inhibitor, single point]
COC(=O)[C@@]1(Cc2ccc(OC)cc2)[C@H]2c3cc(C(=O)N4CCCC4)n(CCc4ccccn4)c3C[C@H]2CN1C(=O)c1ccccc1	inconclusive: 44.7 µM [inhibitor, single point]
